# Reference: publication PMC5515408
# The list shows a part of the results. At the low end of the ranking the order means little.
# System: MYC (p64) + MAX (p21), in MYC:MAX
# Assay: protein-binding microarray (anti-MAX antibody)
# Conditions: PBM: 15 mM Tris-HCl pH 7.5, 100 mM KCl, 0.075% NP40, 7.5 mM beta-mercaptoethanol, 375 ng/ul BSA, 8 ng/ul poly(dA-dT):(dA-dT), 550 ng complex, 60 min, room …; high values mean tight binding; double strand, one strand shown; sequences stand for … in CCGGC…TTAATAGCTAAGATTACTATATCGACG
row,Sequence,binding signal (log2 normalized fluorescence)
1,TGATGGCTGGTA,0.114
2,TGAAGGGGCGTA,0.343
3,CGGGTCTTTCAT,-0.182
4,TGAGAAGACGTA,0.105
5,TGACGCGAGGTA,0.363
6,TGCCAAGTGGTA,0.213
7,TGATAGGCTGTA,-0.106
8,TGAAGACGCGTA,0.195
9,TGAACACATGTA,0.713
10,TGAGGCAGCGTA,0.0436
11,TGACTTGAAGTA,0.0439
12,TGATTGACAGTA,-0.00641
13,GGACACGTTGTT,0.768
14,TGATCGTGGGTA,0.255
15,GTATACGTGGTA,0.202
16,TGAAAGCGAGTA,0.0715
17,TGAGTTGAGGTA,0.0977
18,TGAACGAGCGTA,0.288
19,TGACAGGCAGTA,0.278
20,TGACATGTAGTA,0.279
21,CTTCACGTGGTA,0.765
22,TGAGCTAGAGTA,-0.259
23,TGACTACGAGTA,0.0572

row,Sequence,binding signal (log2 normalized fluorescence)
1,TTACAGGTGTTA,0.301
2,TGATACTTAGTA,-0.0867
3,TGATGCGAAGTA,0.0196
4,TGACCTATGGTA,0.108
5,TGAGGTGATGTA,0.105
6,TGACGTTTGGTA,0.243
7,TGATTCTAAGTA,-0.223
8,TGACAGGTGGTC,0.417
9,TGATTAGTTGTA,-0.256
10,TGATAGTGTGTA,0.25
11,TGACGCACCGTA,0.332
12,TGATCGATAGTA,-0.0788
13,TGAGGCTTTGTA,-0.121
14,TGAAGGCCAGTA,0.0251
15,TGAGTGCGCGTA,0.0856
16,TGCGACGTGGTA,0.41
17,TGAACTTTGGTA,0.0182
18,TTTCACTTGGTA,-0.0329
19,TGAGAAATTGTA,-0.213
20,TGATAGCTGGTA,-0.218
21,TGAGATGCTGTA,-0.0512
22,TCACATGTGGTA,0.918
23,TGATACCGCGTA,0.0701

row,Sequence,binding signal (log2 normalized fluorescence)
1,TGATTAGTAGTA,-0.14
2,TGAAAAGACGTA,0.0945
3,TGACACGTCATG,0.5
4,TGACTTACTGTA,0.0306
5,TGATTATGGGTA,0.0425
6,CACAGGTATCAG,0.231
7,TGAGTTTTTGTA,-0.111
8,TGATGCATCGTA,0.281
9,TGAGAGGTGGTA,0.18
10,TGAAAGCTAGTA,-0.271
11,TGAAAACACGTA,0.278
12,TGAAAACGCGTA,0.285
13,TGACTCTCGGTA,-0.112
14,TGAAAAATGGTA,0.094
15,TGACCACTTGTA,0.271
16,TCACACGTCGTA,0.506
17,TGAAATACAGTA,-0.132
18,TTACAAGTGTTA,0.479
19,TGACTTCGGGTA,-0.00865
20,TGAATAGGTGTA,0.0361
21,TGAGCCCTCGTA,0.184
22,TGAAGTTCTGTA,-0.0118
23,GCCCACGTGGTA,0.862

row,Sequence,binding signal (log2 normalized fluorescence)
1,TGAATACTAGTA,0.0521
2,TGATCCCAAGTA,-0.171
3,TGACACGTGATG,0.851
4,TGAATCTCCGTA,0.0299
5,TGACACGTGCTA,0.869
6,TGACACGTGTAG,0.834
7,TGAAGACCAGTA,0.106
8,TCACACGTGGTT,0.78
9,TGATGGGAAGTA,0.0282
10,TGAGCGAAGGTA,-0.088
11,TGAACCGGGGTA,0.0495
12,TGAGTAGGCGTA,-0.0976
13,TGACTAACTGTA,0.15
14,TGAGCCAGAGTA,-0.182
15,TGAAGCGCTGTA,0.215
16,TGACCCGTGGTA,0.405
17,TGAATGGTTGTA,0.349
18,TGAACCGGAGTA,-0.0317
19,TGAACTGGCGTA,-0.108
20,TTACACGTAGCA,0.256
21,TGAGACGTGGTC,0.229
22,TGACATCTTGTA,0.0964
23,TGAAAGCTGGTA,-0.00903

row,Sequence,binding signal (log2 normalized fluorescence)
1,TGAAGTATCGTA,0.0576
2,TGACGTGTGGTT,0.466
3,TGAGTCATCGTA,-0.176
4,TGAGAACAGGTA,0.122
5,TGAGCTGGAGTA,-0.183
6,TGAAGTTAGGTA,0.0412
7,TGACGCGCGGTA,0.422
8,TGACGAAAAGTA,-0.0542
9,TGAAGTTGAGTA,-0.0715
10,TGAGAGGGTGTA,0.179
11,TGACGAGATGTA,0.0764
12,TGAGCTGAAGTA,-0.119
13,TCACACGTAGCA,0.45
14,TGAATCGCCGTA,-0.148
15,TGAGATGCAGTA,0.00237
16,TGACCGGCCGTA,0.0195
17,TGACGGCGTGTA,0.379
18,TGACCCGCGGTA,0.288
19,TTTAACGTGGTA,0.523
20,TGACAAGAAGTA,0.0925
21,TGGCACGTAGTA,0.32
22,TGAACTTGAGTA,-0.0729
23,TGACCCCCGGTA,0.0361

row,Sequence,binding signal (log2 normalized fluorescence)
1,TGATAACCAGTA,0.0606
2,TGACACCACGTA,0.523
3,TGAACGTACGTA,0.0227
4,TGAATACGTGTA,0.283
5,TGAGGGTGCGTA,0.295
6,TGAATAGCCGTA,0.0143
7,TGGTTCGTGGTA,0.00818
8,TCCTATTCGCGA,-0.139
9,TGAGGTAGGGTA,-0.0271
10,TGACTCGCAGTA,0.211
11,TGAAAGAAGGTA,-0.135
12,CCTAATTATCAA,-0.023
13,TGAATGCTAGTA,0.11
14,TGAGTTGTCGTA,0.0128
15,TGATAGGCCGTA,-0.228
16,TGATCGTACGTA,0.133
17,TGACTGTGAGTA,0.00564
18,TGAAGCTGAGTA,-0.26
19,TGATCCAGAGTA,-0.0845
20,TGTCAGGTGGTG,0.467
21,TGACTACCGGTA,-0.00418
22,TGAAACTCCGTA,0.0547
23,TGACACGACCTA,0.237
